Test [1] deals with MUC1 peptide-biotin (cat#353951, American Peptide Company). As to the kind of experiment: ELISA at 2 ug/ml mAb, MUC1 peptide-biotin on NeutrAvidin; PBS background 0.08. A general note: An ELISA detects its analyte on a solid surface through an enzyme-linked reagent.
For test [2] the target is unchanged. Kind of test: ELISA at 2 ug/ml mAb, MUC1 peptide-biotin on NeutrAvidin; PBS background 0.10.

B1: human anti-GD2 monoclonal antibody 1B7 (antibody, human IgG1, V domains shown)
VH: QVQLVESGAEVKKPGASVKVSCKASGYTFTSYAIHWVRQAPGQRLEWMGWINAGNGYRKYSQKFQGRVTVTRDTSASTAYMELSSLRSEDTAVYYCARFEGGMVTAMDFWGQGTLVTVSS
VL: [skipping about 100 residues]FGPGTKVDIK
Consider B1, for which, in test [1], the ELISA signal (unit not given) is 0.08.

B2: human anti-GD2 monoclonal antibody 2H12 (antibody, human IgG1, V domains shown)
VH: EVQLLESGAEVKKPGASVKVSCKASGYTFTSYAIHWVRQAPGQRLEWMGWINAGNGYRKYSQKFQGRVTVTRDTSASTAYMELSSLRSEDTAVYYCARFEGGMVTAMDYWGQGTLVTVSS
VL: [skipping about 100 residues]FGPGIKVDIK
B2: the ELISA signal (unit not given) in test [1] is 0.08.

B3: human anti-GD2 monoclonal antibody 2F7 (antibody, human IgG1, V domains shown)
VH: EVQLLESGAEVKKPGASVKVSCKASGYIFSRYAIHWVRQAPGQGLEWMGWINPFNGFTKYSQKFQGRVALTRDRSATTGYMELSSLTSEDTAVYYCARLESNKFYAFDIWGQGTMVTVSS
VL: EIVMTQSPLSLPVTPGEPASIS[skipping about 80 residues]FGQGTKVEIK
Regarding B3, the ELISA signal (unit not given) in test [2] was found to be 0.11.

The values above are taken from patent US20150353645A1.
